Measured values reported in article PMC12040169 (PLOS Biology, 2025).
This is one part of the list.

Test system: T1, C. trachomatis L2/434/Bu expressing GFP (CTL2-GFP)
T1 construct: L2/434/Bu GFP intracellular growth in HeLa cells
Set-up: species or system HeLa; C. trachomatis total inclusion area by high-content imaging, normalised to DMSO
Settings: total inclusion area; 28.5 h, 10 µM; inhibitor
Method in brief: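 Post-fluorescence-read fixation, DNA staining with Hoechst and high-content imaging; GFP inclusion area and number per well, and nuclei counts, used as proxies for bacterial growth and host viability.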

| Structure (SMILES) | % of control remaining |
| --- | --- |
| O=C1NC2(CCc3ccccc31)CCN(Cc1cccnc1)C2 (stereo not shown) [CBK284620] | 101.885 |
| Cn1cnc2ccc(NC(=O)CC3CCN(C(=O)CC4CCCCC4)CC3)cc21 [CBK285961] | 112.682 |
| COC(=O)C(C)(C)NC(=O)c1ccn(-c2cc(C)ccc2OC)n1 [CBK305989] | 22.3105 |
| c1cncc(COc2cncc(OC3CCN(CCN4CCOCC4)C3)n2)c1 (stereo not shown) [CBK084463] | 105.167 |
| Fc1ccc2c(c1)[C@@H](Oc1cncc(NC3CCCNC3)n1)CCO2 (stereo partly shown) [CBK172256G] | 91.843 |
| CN1CC[C@H](c2ccccc2)[C@@H]2[C@H]1CCCCN2C(=O)c1ccc(=O)oc1 [CBK285527] | 118.792 |
| CCN1CCCC1CNC(=O)c1ccc(-c2ccco2)nc1N1CCN(C(=O)c2ccco2)CC1 (stereo not shown) [CBK076206] | 100.828 |
| N#Cc1ccc(CN2CCCN(S(=O)(=O)c3ccc(C(F)(F)F)cc3Cl)CC2)cc1 [CBK062939] | 66.4672 |
| NC(=O)NC(CC(=O)N1CCc2sccc2C1)c1cccc(Br)c1 (stereo not shown) [CBK305813] | 60.396 |
| CCOc1ccc(S(=O)(=O)N(C)c2ccc(OCC(=O)O)cc2)cc1 [CBK296119] | 111.891 |
| Cc1cc(Sc2nc[nH]n2)c2c(Cl)ccc(Cl)c2n1 [CBK025959] | 43.811 |
| CCOC(=O)c1c(NC(=O)CSc2nncn2C)sc(C)c1C [CBK267970] | 107.222 |
| O=C(Nc1ccc(C2(c3ccc(NC(=O)c4cccc5ccccc45)cc3)c3ccccc3-c3ccccc32)cc1)c1cccc2ccccc12 [CBK261163] | 84.5068 |
| Cc1cc(OCC(=O)Nc2ccccc2N2CCN(S(C)(=O)=O)CC2)ccc1Cl [CBK269410] | 71.2275 |
| OC(CN1CCC(O)(c2ccc(F)cc2)CC1)c1ccc(-c2ccccc2)cc1 (stereo not shown) [CBK286328] | 67.3196 |
| CCCCn1nc(C(=O)N2CCCCC2c2ncc(-c3cccc(F)c3)[nH]2)ccc1=O (stereo not shown) [CBK291149] | 97.1609 |
| COc1cccc(C(=O)N2CCN(C(=O)Nc3ccccc3Br)CC2)c1 [CBK154783] | 99.6297 |
| CN(C)CCNC(=O)c1cncc(-c2ccc(C(=O)N3CCOCC3)cc2)c1 [CBK158619] | 85.0528 |
| CCc1ccc(CNC(=O)Cn2nnc(-c3ccc(CN4CCC(C)CC4)cn3)n2)cc1 [CBK153928C] | 71.1226 |
| O=C(NCCS(=O)(=O)c1ccccc1)c1cnc(-c2ccc(Cl)cc2)c(-c2ccncc2)c1 [CBK037587] | 78.1681 |
| O=C1NC2=C(C(=O)N(CC3CCCO3)C2)C(c2cccc(F)c2)N1 (stereo not shown) [CBK282364] | 69.8591 |
| COc1ccc(S(=O)(=O)n2ccc3cc(N4CCN(C)CC4)ccc32)cc1OC [CBK000286C] | 75.8258 |
| COCCNC(=O)C(Cc1ccc(-c2ccc(S(C)(=O)=O)cc2)cc1)C1CCN(C(=O)OC(C)(C)C)CC1 (stereo not shown) [CBK173129] | 91.4453 |
| COc1cc(C(C)=O)ccc1OC(=O)CN1C(=O)c2ccccc2C1=O [CBK262392] | 108.044 |
| OCCn1c(-c2ccc(Br)cc2)cn2c3ccccc3nc12 [CBK262167] | 97.4219 |
| CCn1c(CN2CCN(Cc3ccc4c(c3)OCO4)CC2)n[nH]c1=S [CBK013828] | 102.737 |

| Structure (SMILES) | % of control remaining |
| --- | --- |
| CCn1nc(C)c(CN(C)C(=O)C2CC=CCC2C(=O)O)c1C (stereo not shown) [CBK286884] | 68.6139 |
| Cn1c(=O)c2c(ncn2CC(=O)Nc2ccccc2C#N)n(C)c1=O [CBK133465] | 87.8474 |
| CCCCSc1nc(N)cc(N2CCC3(CCNC(=O)CC3)CC2)n1 [CBK307001] | 46.6943 |
| Cc1c(Br)c(C(F)(F)F)nn1CC(=O)Nc1ccc(Oc2cc([N+](=O)[O-])cc([N+](=O)[O-])c2)cc1 [CBK262558] | 86.3117 |
| COC(=O)[C@@H](C)NC(=O)[C@H]1CN(C(=O)c2cccnc2)CCN1C(=O)NC1CCCCC1 [CBK289632] | 107.547 |
| CN1CCN(Cc2c(O)ccc3cc(-c4ccc(F)cc4)c(=O)oc23)CC1 [CBK267976] | 93.8662 |
| O=C(CSc1ccc(Cl)cc1)Nc1cccc2nsnc12 [CBK267936] | 107.322 |
| COc1cc(CNc2cc(-c3ccc4c(c3)OCO4)ncn2)cc(OC)c1OC [CBK037822] | 65.0211 |
| COCCc1noc(CC2CCN(c3cc(C)ncc3C#N)CC2)n1 [CBK304092] | 59.4254 |
| Cc1nn(C)cc1CN(C)S(=O)(=O)c1cccc([N+](=O)[O-])c1 [CBK265399] | 112.134 |
| CCCC(=O)N1CCC(c2cc(C(F)F)c3c(C)noc3n2)CC1 [CBK285304] | 75.9396 |
| COc1ccc(Oc2nccnc2N2CCN(Cc3ccc(C(F)(F)F)cc3)CC2)cc1OC [CBK083044T] | 77.4611 |
| CC(C)(C)n1ncc2c(=O)n(CC(=O)Nc3ccccc3)cnc21 [CBK287541] | 79.4798 |
| O=C(O)/C=C/c1cccc(-c2cn3ccnc3c(NCc3cccnc3)n2)c1 [CBK066283] | 130.216 |
| COc1cccc(CN2CCN(C(=O)c3cccc(F)c3)CC2)c1OC [CBK074527] | 78.3055 |
| O=C1NC[C@@H](Cc2ccccc2)NC(=O)C2(C/C=C/COc3ccccc31)CCN(Cc1ncccc1F)CC2 [CBK292193] | 94.5843 |
| O=C(CSc1nc(-c2cccs2)cc(C(F)(F)F)n1)NN1CCOCC1 [CBK307375] | 79.3733 |
| CC(=O)Nc1ccc(NC(=O)CCn2c(-c3cccc(C)c3)n[nH]c2=S)cc1Cl [CBK296656] | 67.1291 |
| Cn1ccc2ccc(C(=O)Nc3nccs3)cc21 [CBK287910] | 107.371 |
| Cc1nc(COc2ccc(C(=O)N3CCCC(C(N)=O)C3)cc2)no1 (stereo not shown) [CBK305660] | 73.3559 |
| C=CCN1C(=O)C2(CC(=O)N(Cc3ccccc3)C2=O)c2cc(OC)ccc21 (stereo not shown) [CBK075281] | 99.4713 |
| CCN(Cc1cnc(C)s1)[C@H]1CCO[C@@H](c2ccccc2-c2ccc(OC)cc2)C1 [CBK285853] | 65.3377 |
| CC(=O)Nc1cccc(-n2nnnc2SCC2CCCN(C)C2)c1 (stereo not shown) [CBK305294] | 69.731 |
| O=C(O)c1cc(Br)cc2c3c([nH]c12)CCCC3 [CBK100973] | 85.3478 |
| O=C(CN1C(=O)COc2ccc(Cl)cc21)Nc1ccc2[nH]c(=O)[nH]c2c1 [CBK268295] | 68.7386 |
| CCCc1c(C)nc2ccc(C)cc2c1SCC(=O)O [CBK263537] | 114.889 |

| Structure (SMILES) | % of control remaining |
| --- | --- |
| CCOC(=O)n1c(=O)n2n(c1=O)CC=CC2 [CBK023102] | 70.6729 |
| CC(C)(C)NC(=O)N1CCC(=O)N1 [CBK007341] | 98.1016 |
| CC(=O)NC[C@@H]1C=C(C)[C@H](CC(=O)Nc2ccccn2)C[C@H]1C(C)C [CBK289209] | 94.6384 |
| CC1=NNC(=O)C1Cc1ccc(F)cc1 (stereo not shown) [CBK067755] | 66.227 |
| O=C1NC2(CCc3ccccc31)CCN(C(=O)c1ccncc1)C2 (stereo not shown) [CBK283336] | 86.0036 |
| Cn1nnc2cc(NCC3(CNC(=O)OC(C)(C)C)CC3)ccc21 [CBK304777] | 80.8336 |
| CCNS(=O)(=O)c1ccc2c(c1)N(Cc1n[nH]c(CC)n1)CC2 [CBK306434] | 72.9812 |
| Nc1cc2cccnc2nc1-c1ccc(OC(F)(F)F)cc1 [CBK067616] | 107.218 |
| Nc1cc2cccnc2c(-c2ccc3c(c2)CCO3)n1 [CBK081173] | 113.751 |
| Cc1ccc(N(CC(=O)N/N=C2\C(=O)Nc3ccccc32)S(=O)(=O)c2ccccc2)cc1 [CBK262169] | 90.241 |
| Nc1nc(NCCOc2ccccc2F)cc(C2CCOC2)n1 (stereo not shown) [CBK306559] | 64.0141 |
| CS(=O)(=O)c1ccc(-c2ccc3c(c2)CN(C2CCN(C(=O)c4ccccc4)CC2)CCO3)cc1 [CBK169265] | 69.566 |
| O=C(CSc1cnn[nH]1)Nc1ccccc1F [CBK269903] | 57.8502 |
| CCN(CC)CCCOC1(C)SC(NC2CCCCCC2)=NC1=O (stereo not shown) [CBK113510] | 49.4414 |
| Cc1ccc(CNC(=O)c2ccc3c(c2)nc(N2CC[C@H](O)C2)n3C)s1 [CBK306837] | 58.3122 |
| Fc1ccc(-c2cn3ccnc3c(NC3CC3)n2)cc1F [CBK066692] | 115.517 |
| CC1CCN(C(=O)C[C@@H]2O[C@H](CNC(=O)C3CC3)[C@@H](O)[C@H]2O)CC1 [CBK288926] | 76.5352 |
| O=C(c1sccc1Br)N1CCN(Cc2ccc3c(c2)OCO3)CC1 [CBK074730] | 52.5232 |
| CC(C)(CC(=O)O)CC(=O)N1CCCC1c1nc(-c2ccccc2)c2ccccn12 (stereo not shown) [CBK046399] | 97.3942 |
| CCn1nc(CO)c2c1CCN(CC(=O)NCc1cccs1)C2 [CBK307638] | 77.6007 |
| CC(C)(C)c1ccc(S(N)(=O)=O)cc1NC(=O)Nc1cccc(F)c1 [CBK093643] | 90.3702 |
| O=C1CCCC2=C1C(c1ccc(OCc3ccccc3)cc1)c1c([nH][nH]c1=O)N2 (stereo not shown) [CBK288149] | 108.802 |
| Fc1ccc(-c2noc(C3CCN(CCc4ccccc4)CC3)n2)cc1 [CBK051457] | 89.7525 |
| N#Cc1ccc(C(=O)N2CC[C@H]3NC(=O)N(c4ccccc4)C(=O)[C@H]32)cc1 [CBK289282] | 117.823 |
